The results in this text go back to the RNAGym collection of RNA variant scans (doi:10.7554/elife.90254).

The source gives no read counts; variants with many changes may rest on few reads.

The labels stand for the following.
B1: LINE1-mini (parent)
chain: GGCAGAGCUCAACACAGCGUGGCAAAGUGGCUGUGGCUAGACUGCC

This data set covers variants of B1. The data set is described as follows: self-cleavage, relative activity (ratio to wild type); higher = more cleavage; in vitro, sequencing; the parent is a self-cleaving ribozyme.
As for G2A A6G G21C A24G G29A G30A, the self-cleavage came out at 0.07.

Consider G2A C15A A16G G22U, for which the self-cleavage is 0.06.

On to G2A C8G C42U, for which the self-cleavage stood at 0.04.

As to G2A C15A U34C A39U U43C, the self-cleavage was 0.15.

G2A A6G A24U G33C C37A: the self-cleavage stood at 0.03.

As to G2A C8G C13G, the self-cleavage worked out at 0.02.

In the case of G2A A25G C46U, the self-cleavage was determined as 0.18.

For G2A C10A A12G A16U, the self-cleavage amounted to 0.03.

G2A A6C A11C U34A: the self-cleavage is 0.

On to G2A A25C C37G, for which the self-cleavage came to 0.13.

With G2A A25C C37U, the self-cleavage is 0.06.

Take G2A C3A U9A C18U G35A: the self-cleavage was found to be 0.18.

Turning to G2A A12C C31A U34C, the self-cleavage was 0.05.

With G2A A6U A25U C37U, the self-cleavage is 0.18.

As for G2A C3U U32G, the self-cleavage worked out at 0.26.

As to G2A C13U G27C, the self-cleavage was determined as 0.24.

Consider G2A C13U C15G G21U C46A, for which the self-cleavage stood at 0.54.

G2A C13U U38A C45G: the self-cleavage came out at 1.43.

Consider G2A A11G C23U G29C U38A, for which the self-cleavage was found to be 0.03.

As for G2A C3G G21U U32G G33A C37G C42G, the self-cleavage amounted to 0.08.

Regarding G2A C3A C10A C37A, the self-cleavage was 0.04.

Consider G2A C8U C10A, for which the self-cleavage was 0.08.

In the case of G2A A4U C10A C31A, the self-cleavage turned out to be 0.16.

Take G2A A11G A14U G35U U43G: the self-cleavage turned out to be 0.02.

On to G2A A16G C18G, for which the self-cleavage was determined as 0.12.

With G2A C8A G17A G19U A26G C42U G44A, the self-cleavage was found to be 0.1.

Regarding G2A A6C U43G, the self-cleavage amounted to 0.12.

For the variant G2A C3G A4G G19A G21A G35C G36U, the self-cleavage turned out to be 0.03.

Take G2A A6U C10G G30U G33U G36U C42A: the self-cleavage was determined as 0.01.

G2A C8G A12U G27C U43A C46A: the self-cleavage came to 0.04.

As to G2A C10A G17C A41C, the self-cleavage was 0.

With G2A C10G G27C U28A, the self-cleavage amounted to 0.03.

G2A C23A G44C: the self-cleavage was 0.71.

G2A C3A U43C: the self-cleavage was found to be 0.28.

For G2A A26C G40U G44C, the self-cleavage stood at 0.01.

On to G2A A24C C45U, for which the self-cleavage came to 0.22.

In the case of G2A C3G G21A C46U, the self-cleavage came out at 1.56.

For G2A C8A C23G G29A C42G G44C, the self-cleavage is 0.21.

As for G2A C8U G40A, the self-cleavage is 0.39.

As for G2A A4U G29A G33U G36A A41U, the self-cleavage stood at 0.06.

G2A A6C G19A U38G: the self-cleavage was determined as 0.06.

For G2A C13A U20C G21C C23G, the self-cleavage was 0.09.

On to G2A A4U G40U, for which the self-cleavage is 0.27.

On to G2A A4U G21C U32C G33A C37A, for which the self-cleavage is 0.18.

G2A C10U U20C G22U: the self-cleavage turned out to be 0.06.

In the case of G2A C8U G19C U34G G35U, the self-cleavage is 0.14.

G2A C23U U38C A41G: the self-cleavage was found to be 0.22.

G2A C15U G21U G33C: the self-cleavage is 0.02.

In the case of G2A C3A C8A C10A A26U, the self-cleavage was determined as 0.08.

Regarding G2A C10A G44U, the self-cleavage came out at 0.08.

In the case of G2A C15G G29C U32G A39U G44U C45G, the self-cleavage was determined as 0.03.

For G2A C3U A6C U34C U38A, the self-cleavage worked out at 0.16.

Consider G2A A16G G19U G21A, for which the self-cleavage turned out to be 1.62.

Turning to G2A A6C G35C A41U, the self-cleavage was determined as 0.06.

Turning to G2A C23G A24C, the self-cleavage came out at 0.35.

For G2A C3A G22A U43C, the self-cleavage worked out at 0.54.

On to G2A A16G G22U C23A G29U, for which the self-cleavage was found to be 0.14.

Regarding G2A A4G G29U, the self-cleavage came out at 0.63.

On to G2A C3G G5A G7U U28A U34G G36U, for which the self-cleavage is 0.21.

Turning to G2A C15U A16G U38A C45U, the self-cleavage stood at 0.69.

Consider G2A C10U C31G, for which the self-cleavage turned out to be 0.11.

As for G2A C18G G27U G30A C31A, the self-cleavage was 0.5.

In the case of G2A C15A G19U A39G, the self-cleavage worked out at 0.04.

In the case of G2A A14C G30A G40C, the self-cleavage amounted to 0.07.

Consider G2A A6U C8A, for which the self-cleavage came to 0.26.

For G2A A6C A26G, the self-cleavage came to 0.16.

As for G2A A6G U28C, the self-cleavage came out at 0.1.

On to G2A A25G A39U, for which the self-cleavage stood at 0.67.

Regarding G2A A4U C8A C23G A41C, the self-cleavage is 0.26.

In the case of G2A A6G A11G C13U A14U C15G, the self-cleavage was 0.01.

With G2A C10A G21U, the self-cleavage turned out to be 0.17.

Consider G2A A26U G27U G29A, for which the self-cleavage worked out at 0.17.

As for G2A A6U U9G C18G C31U G36C, the self-cleavage stood at 0.02.

G2A C10U G33C: the self-cleavage was 0.05.

Turning to G2A A25G C37U, the self-cleavage was determined as 0.22.

On to G2A C15U G17U G30U G36C, for which the self-cleavage was determined as 0.08.

G2A C3U G5A G22A G27U: the self-cleavage was 0.36.

Regarding G2A A11U C18A G19U U32G G33C, the self-cleavage amounted to 0.04.

On to G2A A16C G19U G22U, for which the self-cleavage was found to be 0.03.

As to G2A C18U C37A, the self-cleavage was 0.87.

Turning to G2A A16U U38C, the self-cleavage turned out to be 0.52.

As to G2A A16G U38G, the self-cleavage is 0.1.

As for G2A C8A C18A A26G, the self-cleavage is 1.59.

As for G2A C15A G29A C31A, the self-cleavage came to 0.23.

On to G2A A12G A16C G17U U32C G36C, for which the self-cleavage worked out at 0.07.

Turning to G2A C23A C37U, the self-cleavage is 0.15.

G2A C3A C10G A39U: the self-cleavage worked out at 0.03.

For G2A C8U G17U G33C, the self-cleavage was 0.12.

As for G2A C15A U20G A26G G44A, the self-cleavage was 0.21.

Consider G2A C15G G17C, for which the self-cleavage amounted to 0.05.

Take G2A A6G C23A: the self-cleavage turned out to be 0.12.

As to G2A C10G G40C, the self-cleavage was found to be 0.05.

As for G2A A4U G5A A11U C13A C45G, the self-cleavage was 0.05.

As to G2A C3G C18U U28G, the self-cleavage stood at 0.16.

Turning to G2A C13G G29A, the self-cleavage came to 0.08.

With G2A C10A G21U A26G, the self-cleavage was found to be 0.02.

Turning to G2A A4G C23U U43C, the self-cleavage was determined as 0.39.

On to G2A C13A C23A U34C G36A, for which the self-cleavage worked out at 0.4.

As to G2A C8G C10U, the self-cleavage amounted to 0.1.

In the case of G2A C15U G22U C31A, the self-cleavage stood at 0.09.

As for G2A C23G G35U, the self-cleavage was found to be 0.15.

As for G2A C15A U34C A41C, the self-cleavage is 0.03.

Regarding G2A C10G G33A A39G A41G, the self-cleavage was found to be 0.01.

Take G2A A11C C13A G22A A39C C45G: the self-cleavage stood at 0.01.

For the variant G2A A16U G22C, the self-cleavage is 0.2.

Consider G2A A6C G27A, for which the self-cleavage amounted to 0.23.

On to G2A A24U G40U A41C G44U, for which the self-cleavage came to 0.16.

As to G2A C3U A11C G27U G33C C42A C46G, the self-cleavage is 0.02.

Consider G2A C3A C42A, for which the self-cleavage came out at 0.61.

Turning to G2A C8U U20C C37A, the self-cleavage amounted to 0.03.

As to G2A A14C A24C, the self-cleavage amounted to 0.08.

On to G2A C8G A26U, for which the self-cleavage was found to be 0.1.

Regarding G2A C3U U20C G27A G36A C37G, the self-cleavage worked out at 0.19.

Turning to G2A A14C G30U C45U, the self-cleavage turned out to be 0.33.

As to G2A C10U U32A G44U C46U, the self-cleavage turned out to be 0.1.

Take G2A C10A C13U G17A: the self-cleavage was 0.13.

For G2A C15G G30A U38A, the self-cleavage came out at 0.01.

G2A A14G G17C G21C: the self-cleavage was determined as 0.06.

Consider G2A C15A A39U C42A C45G, for which the self-cleavage stood at 0.17.

As for G2A A14U G33A U34A, the self-cleavage is 0.3.

Turning to G2A A16U U28C, the self-cleavage worked out at 0.59.

G2A A6C A14U G33U C46U: the self-cleavage stood at 0.13.

In the case of G2A A24U G29A, the self-cleavage came to 1.43.

On to G2A A6U C10A, for which the self-cleavage stood at 0.11.

G2A A6U C10U: the self-cleavage came out at 0.37.

G2A C8G C15G C18A G19C: the self-cleavage was 0.02.

With G2A C10A U32A A39C, the self-cleavage is 0.05.

With G2A A14C G33U A39C U43C, the self-cleavage was 0.

For G2A A14C G22A G35U, the self-cleavage came to 0.1.

For the variant G2A A4U C10A U43C C46U, the self-cleavage worked out at 0.1.

For the variant G2A A16C U34A, the self-cleavage worked out at 0.07.

Regarding G2A A4U A16U C46A, the self-cleavage was 0.

As for G2A A24U C31A G44A, the self-cleavage turned out to be 0.26.

With G2A C10A G29U U32A C37U G40U, the self-cleavage turned out to be 0.01.

For the variant G2A C3U G33U G44U, the self-cleavage amounted to 0.25.

As to G2A A12G C45U, the self-cleavage was 0.01.

As to G2A A6G U9G, the self-cleavage was determined as 0.05.

Consider G2A C13G G17A G19A G27C, for which the self-cleavage is 0.08.

In the case of G2A A11G A16G A39C C45A, the self-cleavage is 0.

As to G2A C23A U28C, the self-cleavage turned out to be 0.17.

Turning to G2A C3A A25U U32G G35A A39G, the self-cleavage amounted to 0.64.

As to G2A C3A A11G A14U, the self-cleavage is 0.12.

With G2A A16C G17A U38A A39G, the self-cleavage worked out at 0.03.

In the case of G2A C8G A24C U34G G44A, the self-cleavage was found to be 0.02.

On to G2A A16U G22A U28C G29C, for which the self-cleavage came to 0.28.

As for G2A A11U G21A G30C U34C C46G, the self-cleavage came to 0.03.

In the case of G2A A11U G22U C23U A39G C42A, the self-cleavage was determined as 0.04.

For the variant G2A C18G G29A A41C C42U, the self-cleavage was found to be 0.13.

As to G2A A25G G35U, the self-cleavage is 1.03.

Take G2A C10A G40A: the self-cleavage worked out at 0.04.

Consider G2A A12U G35U, for which the self-cleavage was 0.05.

G2A C3U C10A A12C A24U G30A: the self-cleavage came out at 0.07.

Regarding G2A A6G U34A, the self-cleavage came to 0.05.

For G2A A41C U43A, the self-cleavage came to 0.23.

For G2A C13A A24G G40A, the self-cleavage stood at 0.36.

On to G2A C10A C46U, for which the self-cleavage is 0.1.

For G2A A11U A14C G36U, the self-cleavage turned out to be 0.06.

As for G2A C3A A11C U32C A41C G44C, the self-cleavage is 0.02.

As to G2A C15U G22A, the self-cleavage is 0.5.

Consider G2A C15U U20C G40U, for which the self-cleavage was 0.4.

G2A C23U U32C C37A G40A: the self-cleavage was found to be 0.34.

Turning to G2A A11C C15A A16U A41U, the self-cleavage was 0.02.

For the variant G2A C13U A39C C42G, the self-cleavage was found to be 0.02.

With G2A A14C C31A, the self-cleavage turned out to be 0.06.

As for G2A C3U G29C C37A C46A, the self-cleavage was 0.41.

With G2A C23G G33C A39C, the self-cleavage was determined as 0.02.

Take G2A A11C G22C: the self-cleavage amounted to 0.03.
